Series [1] in a line: MST affinity of LDHB proteins for cofactor. It counts as binding, human. Here is the method:
MST measurements were performed on a Nanotemper Monolith NT.115 instrument (Nanotemper Technologies®, GmbH) using Red-dye-NHS fluorescent labeling. Each LDH (WT or truncated) sample, purified to homogeneity, was labeled with the Monolith RED-NHS 2nd generation labeling dye according to the supplied protocol (Nanotemper Technologies®, GmbH). Measurements were performed in 50 mM Na-Phosphate pH 7.6 and 100 mM NaCl containing 0.05% Tween-20 in premium treated capillaries (Nanotemper Technologies®, GmbH). The final concentrations of either labeled protein in the assay were 100 nM. The ligands (NADH and peptides) were titrated in 1:1 dilutions following manufacturer's recommendations. All binding reactions were incubated 5′ at room temperature after loading into capillaries. Experiments were performed in triplicates using 40% LED power and medium MST power, LaserOn time was 20 sec, Laser Off time 3 sec. Linear octapeptides were evaluated for their thermophoretic pattern.

A short description of series [2]: Thermal shift assay and TYCHO NT.6 stability. The series is classed as physicochemical, human. As to the method:
Thermal shift assays were performed on a StepOnePlus Real-Time PCR System (Thermo Fisher Scientific®) in 96-well white plates (Roche®). Each well contained 20 μl of 5 μM protein and 5×SYPRO Orange in 50 mM sodium phosphate pH 7.6, 100 mM NaCl. Each plate was sealed with an optically clear foil and centrifuged for 1 min at 1000 rpm before performing the assay. The plates were heated from 20-99° C. at approximately 4° C./min^−1. The fluorescence intensity was measured with λex=480 nm and λem=580 nm. The melting temperature (Tm) was obtained by determining the minimum of the first derivative curve of the melt curve.

Series [3] deals with LDHB subunits. Put plainly: Enzymatic assay (lactate to pyruvate, NADH fluorescence), Michaelis-Menten. The series is classed as biochemical, human. Here is the method:
The dehydrogenase reaction was run in the LDH1 (tetramer of LDHB) physiologically relevant lactate to pyruvate direction following the NADH fluorescence generated during lactate oxidation. The progression of the reaction was monitored as the increase of fluorescence at 340/460 nm.
The Michaelis-Menten constant determination was performed using the GraphPad prism software. Enzymatic reactions were performed in a solution containing phosphate buffer 100 mM at pH 8.3 to enhance lactate to pyruvate oxidation, EDTA 1 mM and DTT 1 mM. Final protein concentration was 7.7 nM for full length LDHB subunit and 13.5 nM for the truncated LDHB subunit (LDHBtr). For NAD^+Km determination, concentrations of lactate were set to 20 mM while co factor concentrations ranged from 1 μM to 5 mM for full length enzyme and from 50 μM to 10 mM for the truncated form. For lactate Km determination, concentrations of NAD^+ were set to 1 mM while substrate concentrations ranged from 1 μM to 40 mM for full length enzyme and from 1 mM to 40 mM for the truncated form.

Where two headings read alike, the source gives them in different places.

“LDHBtr: LDHB subunit lacking the first N-terminal 19 amino acid residues, 6His tagged, dimeric” displayed a Kd in series [1] of 21 µM. Besides, the “shift in melting temperature vs tetrameric LDHB” value in series [2] (TYCHO NT.6) was 24 °C; in series [2] (thermal shift assay), 18 °C. In series [3] (lactate to pyruvate direction), the “Vmax Lactate” value was found to be 1.11 µM/min. In series [3] (lactate to pyruvate direction), the “Vmax NAD+” value worked out at 0.29 µM/min. Besides, the Km in series [3] (lactate to pyruvate direction, read-out: Km Lactate) worked out at 6.52 mM; in series [3] (lactate to pyruvate direction, read-out: Km NAD+) it was 0.578 mM. For the same substance, the “decrease in maximal velocity Vmax vs full-length LDHB” value in series [3] (substrate and cofactor) was determined as 10 fold. The “increase in Michaelis-Menten constant Km vs full-length LDHB” value in series [3] (substrate and cofactor) came out at 5 fold.

One may read the Kd as a measure of binding affinity in units of concentration. In general, Km refers to the substrate concentration at which the rate is half of its maximum.

These data come from patent US20220289791A1, “LACTATE DEHYDROGENASE INHIBITOR POLYPEPTIDES FOR USE IN THE TREATMENT OF CANCER” (UNIVERSITÉ CATHOLIQUE DE LOUVAIN, priority 2019, published 2022).
